Test results reported in PubChem BioAssay AID360 (National Center for Advancing Translational Sciences (NCATS), 2006).
Screen size: about 48,000 compounds; about 550 (1.1%) were called active. About 4% were inconclusive and are not listed. Cut-off read from the data, not from the text of the source: active = potency below about 15 µM; inconclusive = mostly about 16 µM to 33 µM; inactive = weaker than that. The list shows a part of the results.

target: Lysosomal acid glucosylceramidase (Homo sapiens) (UniProt P04062); experiment: Glucocerebrosidase; conditions: purified enzyme, resorufin glucoside fluorescence (screen aimed at inhibitors), 20 min; series mostly up to 77 µM;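 note: the screen sought inhibitors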
How it was run: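 Wild-type enzyme at 0.2 nM final in 50mM citric acid/KH2PO4, 10mM sodium taurocholate, 0.01% tween-20, pH 5.9, with resorufin beta-D-glucopyranoside at 30 uM final. Compounds titrated, 20 min at RT, red fluorescence read; AC50 from titration.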
Potency is the fitted concentration of half-maximal effect.

UniProt P04062, sequence (P04062 whole entry, looked up): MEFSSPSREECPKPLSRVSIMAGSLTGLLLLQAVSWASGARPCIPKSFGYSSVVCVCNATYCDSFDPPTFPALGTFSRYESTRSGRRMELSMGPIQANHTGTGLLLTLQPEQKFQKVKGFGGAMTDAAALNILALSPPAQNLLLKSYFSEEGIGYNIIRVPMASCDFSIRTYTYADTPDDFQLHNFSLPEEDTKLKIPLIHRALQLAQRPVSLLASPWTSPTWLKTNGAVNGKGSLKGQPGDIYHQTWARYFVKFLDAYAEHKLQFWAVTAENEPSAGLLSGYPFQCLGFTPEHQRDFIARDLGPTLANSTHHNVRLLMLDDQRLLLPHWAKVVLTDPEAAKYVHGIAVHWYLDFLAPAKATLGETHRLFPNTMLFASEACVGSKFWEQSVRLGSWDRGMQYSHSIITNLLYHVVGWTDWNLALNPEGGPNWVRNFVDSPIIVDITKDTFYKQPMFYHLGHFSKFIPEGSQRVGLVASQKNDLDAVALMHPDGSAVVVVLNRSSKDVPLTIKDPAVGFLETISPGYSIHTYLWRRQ

Potency, inactive:
Cc1ccc(/C(O)=C2/C(=O)C(=O)N(Cc3cccnc3)C2c2ccccn2)cc1 (stereo unspecified) > 76.9 µM
Cc1cc(NC(=O)CSc2nnc(-c3ccncc3)n2N)ccc1Br > 76.9 µM
Cc1c(-c2nc(N)nc(Nc3ccc(F)cc3)n2)oc2ccccc12 > 76.9 µM
CCOC(=O)N1CCN(c2nc3c(c(=O)[nH]c(=O)n3C)n2Cc2ccccc2Cl)CC1 > 76.9 µM
Cn1c(Cc2csc(N)n2)nnc1SC/C=C/c1ccccc1 > 76.9 µM
Cc1c(N(C)C(=O)C2CCCN2S(=O)(=O)c2ccccc2)c(=O)n(-c2ccccc2)n1C (stereo unspecified) > 76.9 µM
Cc1cc(C)cc(N2CCCn3c2nc2c3c(=O)n(CCN3CCOCC3)c(=O)n2C)c1 > 76.9 µM
CCS(=O)(=O)N1CCC(C(=O)NCc2ccco2)CC1 > 76.9 µM
O=C(NCc1ccccn1)Nc1ccc2c(c1)OCO2 > 76.9 µM
Cn1c(C(C#N)/C(=N\S(=O)(=O)c2cccs2)c2ccccc2)nc2ccccc21 (stereo unspecified) > 76.9 µM
O=C(CCN1CCCCC1c1cccnc1)NCc1ccccc1 (stereo unspecified) > 76.9 µM
Cn1nc(C(=O)Nc2cccc(C(F)(F)F)c2)ccc1=O > 76.9 µM
CC1CCc2nc(NC(=O)c3ccco3)sc2C1 (stereo unspecified) > 76.9 µM
COc1cc2c(cc1NC(=O)CSc1nnnn1-c1ccccc1)oc1ccccc12 > 76.9 µM
Cc1ccccc1NC(=O)CN1CCC(NC(=O)Nc2ccccc2)CC1 > 76.9 µM
COc1ccc(NC(=O)CSc2nnc(Cc3ccccc3)o2)c(OC)c1 > 76.9 µM
Cc1ccccc1-c1nc(CS(=O)CC(=O)NCCCN(C)c2ccccc2)c(C)o1 (stereo unspecified) > 76.9 µM
Cc1cccc2cc(C#N)c(SCC(=O)N3CCC(C)CC3)nc12 > 76.9 µM
COc1cccc(NC(=O)c2oc3ccccc3c2NC(C)=O)c1 > 76.9 µM
CC(=O)Nc1ccc(-c2nnc(SCC(=O)n3c4c(c5ccccc53)CCCC4)n2C)cc1 > 76.9 µM
O=C1CN(C(=O)c2ccccc2)c2ccccc2N1 > 76.9 µM
COc1cccc(S(=O)(=O)Nc2ccc3sc(C)nc3c2)c1 > 76.9 µM
O=C(Nc1ccccc1N1CCCCC1)c1cccc(F)c1 > 76.9 µM
CCOC(=O)N1CCN(C(=O)Cn2nc(-c3ccc(Cl)cc3)ccc2=O)CC1 > 76.9 µM
O=C(NCc1ccc(N2CCCC2=O)cc1)c1cn(CCc2ccccc2)nn1 > 76.9 µM
Cc1ccccc1OCc1nnc2c3cnn(C)c3ncn12 > 76.9 µM
COCCn1c(Cc2ccccc2)nnc1SCC(=O)N(C)C > 76.9 µM
Nc1ccc2oc(-c3cccs3)nc2c1 > 76.9 µM
O=C(CSc1nnc(-c2cnccn2)n1Cc1ccco1)c1ccc(Cl)c(Cl)c1 > 76.9 µM
COc1ccc2c(c1)c(=O)oc1cc(OCC(=O)NC3CC3)ccc12 > 76.9 µM
O=C(O)CSc1ccc2ccccc2n1 > 76.9 µM
Cc1cc(C)nc(NC2=NCC(=O)N2CCc2c[nH]c3ccccc23)n1 > 76.9 µM
COC(=O)CCC(=O)N1CCc2cc(S(=O)(=O)N3CCc4ccccc43)ccc21 > 76.9 µM
Cc1sc(CO)c(Sc2ccccc2)c1C(=O)O > 76.9 µM
O=C(NC1(C(F)(F)F)NC(=O)N(Cc2cccnc2)C1=O)c1ccncc1 (stereo unspecified) > 76.9 µM
COc1ccc(NC(=O)c2cc(OC)c(OC)c(OC)c2)cn1 > 76.9 µM
O=S(=O)(c1cccc2cccnc12)n1cnc2ccccc21 > 76.9 µM
O=C(O)CCCCCN=C1CCc2ccccc2N1 > 76.9 µM
CCCCOP(=O)(c1ccc(N(C)C)cc1)C(O)c1ccccc1F (stereo unspecified) > 76.9 µM
CCCN(C#N)c1nc(NCC)nc(NC(C)C)n1 > 76.9 µM
COc1ccccc1Cc1nc(-c2ccc(C)cc2)no1 > 76.9 µM
Cc1ncoc1C(=O)Nc1cccc(Cl)c1C > 76.9 µM
Cc1ccc(OC(=O)CCc2c(C)nc3ncnn3c2C)cc1 > 76.9 µM
CC(=O)Nc1cc(NC(C)=O)cc(C(=O)OCC(=O)N2CC(C)OC(C)C2)c1 (stereo unspecified) > 76.9 µM
Cc1ccc2c(c1)N(CC(=O)N1CCc3ccccc3C1)C(=O)CO2 > 76.9 µM
CCOc1ccc(-c2nnn(CC(=O)c3ccc4c(c3)OCCO4)n2)cc1OCC > 76.9 µM
CCOC(=O)C1CCCN(c2c(NCCCN(C)Cc3ccccc3)c(=O)c2=O)C1 (stereo unspecified) > 76.9 µM
CCN1C(=O)C(NC(C)=O)c2cc(Br)ccc21 (stereo unspecified) > 76.9 µM
Cc1ccc(Cl)cc1N1CCN(S(=O)(=O)c2c(C)[nH]c(=O)[nH]c2=O)CC1 > 76.9 µM
O=C(Cc1cccs1)N(c1ccc(Cl)cc1)C1C=CS(=O)(=O)C1 (stereo unspecified) > 76.9 µM
Cc1cnc(-c2nnc(N(C)C(=O)c3ccccn3)s2)cn1 > 76.9 µM
COc1ccccc1C1CC(c2ccc(F)cc2)Nc2ncnn21 (stereo unspecified) > 76.9 µM
COc1ccc(CN(CC(=O)NCc2ccco2)C(=O)CCC(=O)Nc2nccs2)cc1 > 76.9 µM
O=C(NCc1cccnc1)c1c(F)c(F)c(F)c(F)c1F > 76.9 µM
CSC1CCCCC1(O)CSc1nc2c(cc1C#N)CCCC2 (stereo unspecified) > 76.9 µM
CCCCCn1c(SCC2CCCO2)nc2cc(C(=O)N3CCC(C(N)=O)CC3)ccc2c1=O (stereo unspecified) > 76.9 µM
CCCCn1c(CN2CCN(C(=O)OCC)CC2)nc2c1c(=O)n(C)c(=O)n2C > 76.9 µM
O=C(c1ccco1)N1CCN(S(=O)(=O)c2ccc(Br)s2)CC1 > 76.9 µM
COc1ccc(-c2cc(C(F)(F)F)nc(S(C)(=O)=O)n2)cc1OC > 76.9 µM
COC(=O)c1cc(C(=O)OC)cc(N2C(=O)CC(N3CCN(c4ccccc4)CC3)C2=O)c1 (stereo unspecified) > 76.9 µM
Cc1ccnc(SCC(=O)N2CCN(c3cccc(Cl)c3)CC2)n1 > 76.9 µM
Cc1cc(C(=O)CSc2nc3ccccc3n2CCC#N)c(C)n1Cc1cccs1 > 76.9 µM
Cc1nc2nc3c(cn2n1)C(=O)CC(c1ccccc1)C3 (stereo unspecified) > 76.9 µM
Cc1ccc(C2C(C(=O)c3cccs3)=C(O)C(=O)N2CCN2CCOCC2)o1 (stereo unspecified) > 76.9 µM
O=C(Nc1cnccn1)c1cccc(C(F)(F)F)c1 > 76.9 µM
CCC(CC)C(=O)Nc1c2c(nn1-c1ccc(OC)cc1)CS(=O)(=O)C2 > 76.9 µM
O=c1c2c(nc3nc(CCc4ccccc4)[nH]n13)CCC2 > 76.9 µM
COCCN(CCOC)S(=O)(=O)c1ccc(C(=O)NCCCN2CCOCC2)cc1 > 76.9 µM
O=C(c1ccc(=O)[nH]c1)N(Cc1ccco1)C1(C(=O)NC2CCCCC2)CCCCC1 > 76.9 µM
CC(C)CN(C#N)c1nc(N2CCOCC2)nc(N2CCOCC2)n1 > 76.9 µM
CCOC(=O)CC(=O)CSc1ccc2nnc(-c3ccc(C)cc3)n2n1 > 76.9 µM
COc1cccc(-n2nnnc2SCC(=O)NCCc2ccccc2)c1 > 76.9 µM
NC(=O)C1CCN(C(=S)c2cccs2)CC1 > 76.9 µM
Cc1ccc(CNC(=O)CCCNC(=O)c2ccc(Cl)cc2)n1C > 76.9 µM
C/C(Nc1cccc(F)c1)=C(/C#N)C(N)=O > 76.9 µM
CC1=CC(=O)OC1Cc1ccncc1 (stereo unspecified) > 76.9 µM
COc1ccc2[nH]c(=O)c(CN(C)C(=O)c3ccncc3)cc2c1 > 76.9 µM
COc1ccccc1NC(=O)C1=C(C)Nc2nnnn2C1c1ccccc1OC (stereo unspecified) > 76.9 µM
O=C(c1ccccc1)c1coc2ccc(O)c(CN3CCOCC3)c12 > 76.9 µM
O=C(CCN1C(=O)c2ccccc2C1=O)Nc1ccc(-c2nc3ccccc3o2)cc1 > 76.9 µM
OCCN(Cc1ccccc1)Cc1ccccc1F > 76.9 µM
CCNc1nc(NCC)nc(OCCOC(=O)c2ccccc2)n1 > 76.9 µM
C=CCOn1c(=O)c(=O)n(OCc2ccccc2)c2ccccc21 > 76.9 µM
CCn1c2ccccc2c2nnc(SCC(=O)NCCOC)nc21 > 76.9 µM
CCCCOc1ccc(OCCNS(=O)(=O)N(C)C)cc1 > 76.9 µM
COC(=O)c1sc(NC(=O)c2ccc(Cn3cc(Cl)cn3)o2)c(C#N)c1C > 76.9 µM
COc1ccccc1N(CC(=O)NC1CCCC1)C(=O)CCC(=O)Nc1cc(C)on1 > 76.9 µM
O=C(NCCc1ccccc1)C1CCN(S(=O)(=O)c2cccc3nsnc23)CC1 > 76.9 µM
C=CCN1CCN(C(c2cc(OC)ccc2OC)c2nnnn2CC2CCCO2)CC1 (stereo unspecified) > 76.9 µM
Cc1ccc(NCc2nnc(SCC(=O)c3ccc4c(c3)OCCO4)o2)c(C)c1 > 76.9 µM
COc1cccc(NC(=O)c2ccccc2-c2nc(-c3ccc(F)cc3)no2)c1 > 76.9 µM
